We go through 56 variants from the RNAGym collection of RNA variant scans (doi:10.7554/elife.90254).

Read counts are not given, so values of variants with three or more changes are uncertain.

B1: LINE1-mini (parent)
chain: GGCAGAGCUCAACACAGCGUGGCAAAGUGGCUGUGGCUAGACUGCC

Variants of B1 are the subject of the data set. The data set can be described thus: self-cleavage, relative activity (ratio to wild type); higher = more cleavage; in vitro, sequencing; the parent is a self-cleaving ribozyme.
As to GGCAGAGGUCAACACGGCGUGGCAAAGUGGCUGUGGCUUGACUGCC, the self-cleavage was 0.04.
As to GGCAGAGGUAAACACAGCGUGACAAAGUGGCUGUGGCCAGACUGGC, the self-cleavage was found to be 0.
With GGCAGAGGUCAACACAGCAUGGCAAAGUGGCUGGGGUUAGACUGCC, the self-cleavage worked out at 0.05.
Regarding GGCAGAGGUCAACAUAGCGUGGCAAUGGGGCUGUGGCUAGACUGCC, the self-cleavage was 0.01.
The value for GGCAGAGGUCAACACAGCGUGGCAAAGUGGCUGUGGGUAGACAGCC was 0; that for GGCAGAGGUCAACACAGCGUGGCUAAGUGGCUGUGGCUAGACUGCA was 0.03; that for GGCAGAGGUUAACACAGCGUGGCAAAGUGGUUGUGUCUAGACUGUC was 0.04.
For GGCAGAGGUCAACACAUCGUGGCAAAGUGGCUGUGGCCAGACUGCC, the self-cleavage was 0.07.
The value for GGCAGAGGUCAACACCGCGUGGCAAAGUGGCUGUGGAUAGACUGCC was 0.01.
To GGCAGAGGUCAACACAGCGUGGCAAAGUGGAUGUGGCUGGACUGCC belongs 0.15.
For GGCAGAGGUCAACACAACGUGGCGAAGUGGCUGUGGCUAGACUGCC, the self-cleavage was 0.04.
Take GGCAGAGGUCAACUCAGCGUUGCAAAGUGGCUGUGGCUAGACUGCC: the self-cleavage was 0.
To GGCAGAGGUCAACACAGGCUGGCAAAGUGGCUGUAGCUAGACUGCC belongs 0.07; to GGCAGAGGUAAAUACAGGGUGUCAAAGUGGCUGUGGCUAGACUGCC, 0.03; to GGCAGAGGUCAAAACAGCGUGGCCAAGUGGCUGUGGCUAGACUGCC, 0.09.
Take GGCAGAGGUCAACACAGCGUGGCAAAGUGGCUGUGGCUAGAAUCUC: the self-cleavage stood at 0.01.
For GGCAGAGGUCAACACAGCGUGGCAAGGUAGCUGUGGCUAGACUGCC, the self-cleavage came out at 0.04.
Consider GGCAGAGGUCAACACAACGAGGCCAAGAGGCUGUGGCUAGACUGCC, for which the self-cleavage was found to be 0.05.
As to GGCAGAGGUCAAUACAGCGUGGGAAAGUGGCUAUGGCUAGACUGCC, the self-cleavage worked out at 0.02.
To GGCAGAGGUCAACACAGCGUGGCACAGUGGUUGUGGCUACACGUCC belongs 0.03; to GGCAGAGGUCAACACAGCGUGGCAAGGUGGCUGUGGAUAGACUUCC, 0.06; to GGCAGAGGUCAACACAGCCUUGCAAAGUGGCUGUGGCUAGACUGCC, 0.08.
With GGCAGAGGUCAACACAGCGUGGCUAAGUGGGUGUGGCUAGACUGCC, the self-cleavage stood at 0.08.
The value for GGCAGAGGUUAACUCAGCGUGGCAAAGUGGCUGUAGCUAGACUGCC was 0.02; that for GGCAGAGGUCAACACAGCGUGGAAAAGUGUCUGUGGCUAGACUGCC was 0.17; that for GGCAGAGGUCAACACAGCGUGGUAAAGUGGCUGUGGCUAGACCGGC was 0.02.
As for GGCAGAGGUCAACACAGCGUGGCAGAGUGGCUGUGGCUAGAAUGCC, the self-cleavage was 0.02.
To GGCAGAGGUCAACACCGCGUUGCAAAGUGGCUGUGGCUAGACUGCC belongs 0.02; to GGCAGAGGUGAACACAGCGUGGCAAGGUGGCUGUGGCUAGACUGCC, 0.02; to GGCAGAGGUCAAGACAGCGUGGCAAAGUGACUGUGGCUAGACUGCC, 0.01.
Turning to GGCAGAGGUCAACACAUCGUGGCAAAGUGGCUGUAGCUAGACUGCC, the self-cleavage worked out at 0.04.
The value for GGCAGAGGUCAACACAGCGUGGCAAUGUGGCUGUUGCUAGACUGCC was 0.02; that for GGCAGAGGUCAACACAGCGUGGCAAAGUGGCUGUGGGUAGACUGAC was 0.01; that for GGCAGAGGUCAACACAGGGUGGCAAAAUGGCUGUGGCUAGACUGCC was 0.04.
The value for GGCAGAGGUCAACACAGUGUGGCAAAGUGGCUGUGGUUAGACUGCC was 0.04; that for GGCAGAGGUCAACACAGCGUGGAAAAGUAGCUGUGGCUAGACUGCC was 0.07.
With GGCAGAGGUCAACACCGCGUGGCAAAGUGGGGGUGGCUAGACUGCC, the self-cleavage was 0.02.
On to GGCAGAGGUAAACACAGCGUGGCAAAAUGGCUCUGGCUAGACUGCC, for which the self-cleavage came out at 0.02.
Take GGCAGAGGUUUACACAGCGUGGCUAAGUGGAUGUGGCUGGACUGCA: the self-cleavage came to 0.01.
In the case of GGCAGAGGUCAACACUCGGUGGCAAAGAGGCUGUGUCUAGACUGCC, the self-cleavage was 0.08.
Turning to GGCAGAGGUCAACACAGCGUGGCAUAGUGGCUGUGGCUAGAGUACC, the self-cleavage came to 0.05.
The value for GGCAGAGGUUAACACAGCGUGUAAAAGUGGCUGUGGCUAGACUGCC was 0.01.
To GGCAGAGGUGAACACAGCGUGGCUAAGUGGCUGUGGCUAUUGUGCC belongs 0.01; to GGCAGAGGUCAACACAGCGUGGCAAAGUGGCUGUGGUUAGGUUGCC, 0.16.
To GGCAGAGGUCAACACAGUGCGUUAAAGUGGAUGCGGCUAGACUGCC belongs 0.01; to GGCAGAGGUCAAGACAGCGUGGUAAAGUGGCUGUGGCUAGAGUGCC, 0.06.
For GGCAGAGGUCAACACAGCUUGGCAAAGUGGUUGUUGCUAGACUGCC, the self-cleavage is 0.02.
The value for GGCAGAGGUCAACACAGCGUGGCAACGUGGCUGAGGCUAGAGUGUC was 0.05; that for GGCAGAGGUCAACACAGCGUGGCAGUGUGGCUCUGGCUAGACUGCC was 0.14; that for GGCAGAGGUCAAAACAGAGUGGCAAAAUGGCUGUGGAUAGACAGCC was 0.05.
To GGCAGAGGUCAACUCAGGGUGGCAAAGUGGCUGUGGCUAGACCGCC belongs 0.01; to GGCAGAGGUCAACACAUCGUGGCAAAGUAGAUGUGGCUAGACUGCA, 0.02.
To GGCAGAGGUCAACACAUCGUGGCAAAAUGGUGGUGGCUAGACUGCC belongs 0.02; to GGCAGAGGUCAACGCAGCGUGGCAAAGUGGUUGUGGCUGGUCUGCC, 0.03.
As for GGCAGAGGUCAAGACAGCGUUGCAAAGUGGCUGUGACUAGACUGCC, the self-cleavage is 0.18.
Consider GGCAGAGGUCAACAAAGCGUGGCACAGUGGCUGUGGCUAGACUGCC, for which the self-cleavage is 0.04.
